# Source: PubChem BioAssay (NCATS)
# Several values for one entry are separate records, joined by “and”; a condition that tells them apart may be missing. Identical values can stand only once. Inconclusive means that the source gave no clear call. Such entries were picked first, then a sample of the others. For some assays here: Potencies of inconclusive entries are doubtful fits and often do not repeat. More than one record can exist for a structure, and the calls need not agree. Activity calls are given as the source filed them. Calls come from the whole dose curve; as a rule, active = well fitted curve in the direction sought with a large enough effect; inconclusive = small, poorly fitted or top-dose-only effect, or another doubt; inactive = no such curve, though single readings can be large; an effect the other way counts as inactive or inconclusive.
# Key:
# [1] = P-glycoprotein substrates identified in KB-8-5-11 adenocarcinoma cell line, qHTS therapeutic library screen (AID 1346987); note: nearly all actives have a fitted effect of over 65% in size
# Outline: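 KB-8-5-11, a colchicine-selected P-gp-overexpressing KB-3-1 subline, was grown without colchicine for the assay. Cells were seeded at 500 cells/well, dosed in concentration-response and incubated 72 h at 37 degree C, 5% CO2. Viability was read by CellTiter-Glo luminescence.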
# [2] = system: Zika virus NS2B-NS3 protease (unlinked complex); assay: Primary screen GU Rhodamine qHTS for Zika virus inhibitors: Unlinked NS2B-NS3 protease assay (AID 1347159); note: nearly all actives have a fitted effect of over 60% in size
# Outline: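 Noncovalent NS2B hydrophilic domain/NS3 protease complex (25 nM final) in 10 mM Tris-HCl pH 8.0, 0.01% Tween 20, preincubated 15 min with compounds (up to 114 microM), then 1.5 microM Rhodamine110 substrate. Fluorescence change over 15 min fitted to 4-parameter Hill.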
# [3] = Primary qHTS for inhibitors of nuclear receptor binding SET domain protein 2 (NSD2) in an isogenic RCH-ACV NSD2 p.E1099K mutant (9B) (AID 1645876); note: nearly all actives have a fitted effect of over 70% in size
# CRL-7250 = normal cell line; assay: Cytotoxic Profiling of Annotated Libraries Using Quantitative High-Throughput Screening (AID 1296008); details: Five cell lines viability, CellTiter-Glo ATP luminescence, 48-72 h; max response: stronger effect = lower value; note: nearly all actives have a fitted effect of over 60% in size; for max response: % is set by controls: 0 for no effect and ±100 for the full control effect
# Outline: (§1)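 Compounds were pin-transferred onto cells and incubated 48 or 72 hr at 37 degree Celsius, 95% humidity. CellTiter-Glo was added, plates sat 10 min at room temperature, then ATP-coupled luminescence was imaged as the viability read-out.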
# HaCat = assay: as above; details: Five cell lines viability, CellTiter-Glo ATP luminescence, 48-72 h; max response: stronger effect = lower value
# Outline: as §1
# KB-3-1 = assay: as above; details: Five cell lines viability, CellTiter-Glo ATP luminescence, 48-72 h; max response: stronger effect = lower value
# Outline: as §1
# NIH3T3 = assay: as above; details: Five cell lines viability, CellTiter-Glo ATP luminescence, 48-72 h; max response: stronger effect = lower value
# Outline: as §1
# C33A = assay: Primary qHTS to identify gynecologic anti-cancer compounds using libraries of approved drugs and bioactive compounds (AID 1345084); details: Gynecologic cancer cell panel viability, ATPlite luminescence, 48 h; series mostly up to 57.5 µM; note: nearly all actives have a fitted effect of over 55% in size; for activity change, negative = cytotoxicity: % is set by controls: 0 for no effect and ±100 for the full control effect
# Outline: (§2)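 Five-concentration response, 48 h; readout is ATP-driven luciferase luminescence.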
# CASKI = assay: as above; details: Gynecologic cancer cell panel viability, ATPlite luminescence, 48 h; series mostly up to 57.5 µM
# Outline: as §2
# Es-2 = assay: as above; details: Gynecologic cancer cell panel viability, ATPlite luminescence, 48 h; series mostly up to 57.5 µM
# Outline: as §2
# HeLa = assay: as above; details: Gynecologic cancer cell panel viability, ATPlite luminescence, 48 h; activity change, negative = cytotoxicity: at 57.5 µM (top of the series)
# Outline: as §2
# Hek293T = assay: as above; details: Gynecologic cancer cell panel viability, ATPlite luminescence, 48 h, control line for the selectivity index; activity change, negative = cytotoxicity: at 57.5 µM (top of the series) unless noted
# Outline: as §2
# JEG-3 = assay: as above; details: Gynecologic cancer cell panel viability, ATPlite luminescence, 48 h; series mostly up to 57.5 µM
# Outline: as §2
# OV90 = assay: as above; details: Gynecologic cancer cell panel viability, ATPlite luminescence, 48 h; series mostly up to 57.5 µM
# Outline: as §2
# SKOV3 = assay: as above; details: Gynecologic cancer cell panel viability, ATPlite luminescence, 48 h; series mostly up to 57.5 µM
# Outline: as §2
# Tov-21-G = assay: as above; details: Gynecologic cancer cell panel viability, ATPlite luminescence, 48 h; activity change, negative = cytotoxicity: at 57.5 µM (top of the series) unless noted
# Outline: as §2
# Tov112D = assay: as above; details: Gynecologic cancer cell panel viability, ATPlite luminescence, 48 h; series mostly up to 57.5 µM
# Outline: as §2
# CAOV3 = assay: as above; details: Gynecologic cancer cell panel viability, ATPlite luminescence, 48 h; activity change, negative = cytotoxicity: at 57.5 µM (top of the series)
# Outline: as §2
# PA-1 = assay: as above; details: Gynecologic cancer cell panel viability, ATPlite luminescence, 48 h; series mostly up to 57.5 µM
# Outline: as §2
# [4] = Primary qHTS for inhibitors of nuclear receptor binding SET domain protein 2 (NSD2) in an RCH-ACV wild type WT cells (2C) (AID 1645877); details: activity change, negative = cell killing: at 44.9 µM (top of the series) unless noted; note: nearly all actives have a fitted effect of over 70% in size
# Potency is the fitted concentration of half-maximal effect; tags give direction and shape of the fitted curve.
smiles,measurement,setting,value
CS(=O)(=O)N1CCc2c(-c3cnc(N)nc3)nc(N3CCOCC3)nc21,Potency,[1],"inconclusive: 3.72 µM [inhibitor, partial curve] and active: 1.3 µM"
same,Potency,[2],inactive
same,Potency,[3],active: 920 nM and active: 468 nM
same,Potency,CRL-7250,"inconclusive: 51.7 nM [inhibitor, full curve, poor fit]"
same,Potency,HaCat,"inconclusive: 0.526 µM [inhibitor, partial curve, poor fit]"
same,Potency,KB-3-1,"inconclusive: 14.8 µM [inhibitor, partial curve] and active: 4.61 µM"
same,Potency,NIH3T3,active: 743 nM and active: 1.84 µM
same,Potency,C33A,"inconclusive: 5.01 µM [cytotoxic, full curve]"
same,Potency,CASKI,active: 2 µM
same,Potency,Es-2,"inconclusive: 10 µM [cytotoxic, partial curve]"
same,Potency,HeLa,active: 3.55 µM
same,Potency,Hek293T,active: 3.55 µM
same,Potency,JEG-3,"inconclusive: 11.2 µM [cytotoxic, partial curve]"
same,Potency,OV90,active: 4.47 µM
same,Potency,SKOV3,active: 1.26 µM
same,Potency,Tov-21-G,"inconclusive: 6.31 µM [cytotoxic, full curve]"
same,Potency,Tov112D,"inconclusive: 2.82 µM [cytotoxic, full curve]"
Cc1cc(Nc2ncc3c(n2)N(C)C(=O)N(c2cc(NC(=O)c4cccc(C(F)(F)F)c4)ccc2C)C3)n(C)n1,Potency,[1],"inconclusive: 14.8 µM [inhibitor, partial curve]"
same,Potency,CRL-7250,active: 469 nM
same,Potency,HaCat,active: 0.833 µM
same,Potency,KB-3-1,"inconclusive: 26.4 µM [inhibitor, single point]"
same,Potency,NIH3T3,active: 1.32 µM
O=C(O)COCCN1CCN([C@H](c2ccccc2)c2ccc(Cl)cc2)CC1,max response,CRL-7250,inactive: 2.26%
CCN(CC)C(=O)c1ccc(Nc2nc(OCC3CCCCC3)c3[nH]cnc3n2)cc1,Potency,[2],"inconclusive: 28.2 µM [inhibitor, full curve]"
same,Potency,CRL-7250,"inconclusive: 3260 nM [inhibitor, full curve]"
same,Potency,HaCat,"inconclusive: 0.58 µM [inhibitor, full curve]"
same,Potency,KB-3-1,active: 14.6 µM
same,Potency,NIH3T3,active: 10.3 µM
same,Potency,C33A,inactive
same,Potency,CAOV3,"inconclusive: 3.55 µM [cytotoxic, full curve, poor fit]"
same,Potency,CASKI,"inconclusive: 8.91 µM [cytotoxic, partial curve]"
same,Potency,Hek293T,inactive
same,Potency,PA-1,"inconclusive: 3.55 µM [cytotoxic, single point]"
same,Potency,SKOV3,"inconclusive: 6.31 µM [cytotoxic, single point]"
same,Potency,Tov-21-G,"inconclusive: 6.31 µM [cytotoxic, full curve]"
CNC(=O)c1c(F)cccc1Nc1nc(Nc2cc3c(cc2OC)CCN3C(=O)CN(C)C)nc2[nH]ccc12,Potency,[2],inactive
same,Potency,CRL-7250,"inconclusive: 37.2 µM [inhibitor, single point] and inconclusive: 29.1 µM [inhibitor, single point]"
same,Potency,HaCat,active: 18.4 µM
same,Potency,KB-3-1,"inconclusive: 16.6 µM [inhibitor, partial curve, poor fit] and inconclusive: 4.61 µM [inhibitor, full curve]"
same,Potency,NIH3T3,"inconclusive: 29.6 µM [inhibitor, partial curve]"
same,Potency,CAOV3,"inconclusive: 31.6 µM [cytotoxic, partial curve, poor fit]"
same,Potency,PA-1,"inconclusive: 20 µM [cytotoxic, partial curve, poor fit]"
same,Potency,SKOV3,"inconclusive: 35.5 µM [cytotoxic, partial curve, poor fit]"
C=CC(C)(O)C(O)CC1C(C)(O)C(O)C(O)C2C(C)(C)CCCC21C (stereo unspecified),max response,CRL-7250,inactive: 1.81%
same,Potency,HaCat,"inconclusive: 1.01 µM [inhibitor, partial curve, poor fit]"
CC1(C)CC[C@]2(C(=O)OC3OC(CO)C(O)C(O)C3O)CC[C@]3(C)C(=CCC4[C@@]5(C)CC[C@H](OC6OC(C(=O)O)C(O)C(O)C6O)C(CO)(CO)C5CC[C@]43C)[C@@H]2C1 (stereo partly specified),Potency,[4],active: 0.435 µM
same,Potency,CRL-7250,active: 2460 nM
same,Potency,HaCat,"inconclusive: 4.91 µM [inhibitor, single point]"
same,Potency,KB-3-1,"inconclusive: 5.51 µM [inhibitor, single point]"
same,Potency,NIH3T3,"inconclusive: 6.93 µM [inhibitor, single point]"
same,Potency,C33A,"inconclusive: 11.2 µM [cytotoxic, single point]"
same,Potency,CAOV3,"inconclusive: 7.08 µM [cytotoxic, single point]"
same,Potency,CASKI,"inconclusive: 11.2 µM [cytotoxic, single point]"
same,Potency,Es-2,"inconclusive: 7.94 µM [cytotoxic, single point]"
same,Potency,JEG-3,"inconclusive: 5.62 µM [cytotoxic, single point]"
same,Potency,SKOV3,"inconclusive: 7.94 µM [cytotoxic, single point]"
